This is an account of results in patent US6475985B1, “Nucleosides with antiviral and anticancer activity” (priority 1998, dated 2002).

In data set [1] the test system is MCF-7 breast cancer cells. In words: Test G: activity against MCF-7 breast cancer cells. The format is cell-based. As for the experimental part: (§1) The activity of representative compounds of formula VII against MCF-7 breast cancer cells and CEM T-cell leukemia cells were determined using a procedure similar to that described by C. R. Wagner, et al. Cancer Research, 1997, 57, 2341-2345.

Data set [2] concerns CEM T-cell leukemia cells. Nature of the data set: Test G: activity against CEM T-cell leukemia cells. The format is cell-based. As for the experimental part:
as §1

In general, CC50 refers to the concentration that lowers cell viability or growth by half. As to `COC(=O)[C@H](Cc1ccccc1)NP(=O)(O)OC[C@H]1O[C@@H](n2cc(F)c(=O)[nH]c2=O)C[C@@H]1O` [Compound 36, 5-fluoro-2′deoxy-5′-uridyl N-((L)-1-carbomethoxy-2-phenylethyl)phosphoramidate], the “Half-life Cell Media 37 C” value is >48 h. The molecule also came in with a CC50 in data set [1] of 45 nM. In data set [2], this molecule had a CC50 of 320 nM.
